Data: PMC6919601, “Identification of Plasmodium dipeptidyl aminopeptidase allosteric inhibitors by high throughput screening” (PLoS ONE, 2019)
The campaign covered roughly 110,000 compounds. About 230 (0.21%) showed an effect of 50% or more. Some of the results follow.

Target: DPAP1 (Plasmodium falciparum, UniProt Q8IIJ9)
Assay: primary screen, percent inhibition; read by cleavage of a fluorogenic dipeptide substrate; higher = more effect of the substance
Parameters: species or system P. falciparum D10 trophozoite lysates; single well
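Further: 30 min substrate incubation versus DMSO and 10 µM JCP410 controls.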

Sequence of DPAP1 (Q8IIJ9 whole entry, looked up): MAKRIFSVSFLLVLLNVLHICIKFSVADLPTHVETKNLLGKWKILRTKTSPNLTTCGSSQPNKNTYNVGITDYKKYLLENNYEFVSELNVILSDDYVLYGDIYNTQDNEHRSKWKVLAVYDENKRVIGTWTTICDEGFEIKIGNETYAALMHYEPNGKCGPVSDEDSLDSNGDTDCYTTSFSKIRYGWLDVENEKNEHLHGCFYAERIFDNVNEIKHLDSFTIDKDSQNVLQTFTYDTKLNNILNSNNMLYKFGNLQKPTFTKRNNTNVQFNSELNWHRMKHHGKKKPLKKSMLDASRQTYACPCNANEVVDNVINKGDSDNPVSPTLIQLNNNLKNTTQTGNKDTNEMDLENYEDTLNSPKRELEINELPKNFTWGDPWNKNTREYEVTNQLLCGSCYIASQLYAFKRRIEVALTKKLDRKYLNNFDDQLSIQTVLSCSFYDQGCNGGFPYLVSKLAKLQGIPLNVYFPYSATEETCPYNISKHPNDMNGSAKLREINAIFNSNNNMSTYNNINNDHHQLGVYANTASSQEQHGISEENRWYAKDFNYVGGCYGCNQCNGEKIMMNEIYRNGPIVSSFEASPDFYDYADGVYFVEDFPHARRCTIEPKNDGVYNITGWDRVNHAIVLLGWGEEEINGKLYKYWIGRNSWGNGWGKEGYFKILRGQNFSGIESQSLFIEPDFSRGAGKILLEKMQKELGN

| SMILES | % Inhibition @ 10 uM [%] |
| --- | --- |
| CCN(CC)c1ccc2c(COC(C)=O)cc(=O)oc2c1 | -0.13 |
| CCCCCC(C#N)NC(=O)[C@H](CC(C)C)NC(=O)OCc1ccccc1 (some centres unmarked) | 0.174 |
| COc1ccc(-c2noc(C(=O)NCc3ccc(F)cc3)n2)cc1OC | 1.76 |
| COc1ccc(C(=O)NCC(c2cccnc2)N(C)C)cc1 (centres unmarked) | -2.29 |
| Brc1ccc(SCCc2ccncc2)cc1 | -1.29 |
| Cc1cc(C(=O)NC(C)C)cc(S(=O)(=O)NC(C)C)c1C | -3.92 |
| COc1ccc(CCNC(=O)NC2CCCCC2)cc1 | 0.795 |
| CC(C)N(Cc1ccccc1)S(=O)(=O)c1ccc(Cl)cc1 | -1.22 |
| CCN1C(=O)c2ccccc2S1(=O)=O | 3.74 |
| Cc1ccc(S(=O)(=O)N(CC(=O)Nc2ccc3c(c2)OCCO3)Cc2ccccc2F)cc1 | 0.145 |
| CC1=C(C(=O)Nc2ccccc2C)C(c2cccc(Br)c2)NC(=O)N1 (centres unmarked) | -1.36 |
| Nc1ncc(Cc2cccc3ccccc23)s1 | 1.33 |
| CCCCN(CC)CCNC(=O)CN1C(=O)CSc2c1c(C)nn2-c1ccccc1 | 2.65 |
| O=C1C2C3C=CC(C3)C2C(=O)N1c1cccc(Cl)c1 (centres unmarked) | -0.996 |
| CCC(Cc1ccccc1)NC(=O)Cn1cc2c(n1)CCCC2 (centres unmarked) | -1.8 |
| CCN(CC)CCN(CC)Cc1c(F)cccc1Cl | -1.21 |
| O=C(Nc1ccc(F)cc1)c1ccc(Br)cc1 | -7.5 |
| Cc1ccc(N2CCN(c3ccc(NC(=O)CCC(=O)O)cc3)CC2)cc1 | 0.214 |
| O=C(Nc1nc[nH]n1)c1ccco1 | -1.46 |
| CC(C)[C@H](NC(=O)c1ccc(-c2ccccc2Cl)c(Cl)c1)C(=O)NCC#N | -5.04 |
| COc1cccc(CN2CCN(Cc3cccnc3)CC2)c1 | 0.76 |

| SMILES | % Inhibition @ 10 uM [%] |
| --- | --- |
| COc1cccc(C2C(C(=O)Nc3cccnc3)=C(C)Nc3nc(-c4cccc(C)c4)nn32)c1OC (centres unmarked) | -1.47 |
| COc1cc(C(CC(=O)N2CCC3(CC2)OCCO3)N2Cc3ccccc3C2=O)cc(OC)c1OC (centres unmarked) | -7.28 |
| CC1Cc2cc(C(=O)C3=C(O)C(=O)N(Cc4ccco4)C3c3cccs3)ccc2O1 (centres unmarked) | 2.43 |
| Cn1c(=O)c2c(ncn2Cc2ccc(Cl)cc2Cl)n(C)c1=O | 1.26 |
| CC(=O)c1nnn(-c2ccc(F)c(Cl)c2)c1C | -0.256 |
| CCC[C@H](NC(=O)C1(NC(=O)N2CCN(C)CC2)CCCCC1)C(=O)c1nnc(-c2ccc(OC)cc2)o1 | 1.7 |
| Cc1ccc(C(=O)Nc2sc3c(c2C(N)=O)CCCC3)cc1Br | 0.795 |
| O=C(O)c1ccc2c(c1)C(=O)N(C(Cc1ccccc1)C(=O)O)C2=O (centres unmarked) | -7.08 |
| COC(=O)C#CC(CC(C)C)NC(=O)[C@H](Cc1ccccc1)NC(=O)[C@H](CC(C)C)NC(=O)[C@H](CCc1ccccc1)NC(C)=O (some centres unmarked) | -3.14 |
| Cn1c(=O)c2c(nc(N3CCN(Cc4ccccc4)CC3)n2CC(=O)c2ccccc2)n(C)c1=O | -1.24 |
| COc1ccc(/C=C2\S/C(=N/c3ccc(C(=O)O)cc3)N(C)C2=O)c(OC)c1 | 12.7 |
| COc1cc(/C=C2/SC(N3CCC(C)CC3)=NC2=O)cc(OC)c1OC | -1.33 |
| Cc1ccc(CNC(=O)C2CCCN(c3nnc(C)c4c(C)n(-c5ccc(Cl)cc5)nc34)C2)o1 (centres unmarked) | 4.05 |
| COc1ccc(N/C=C(\C#N)C(=O)NC(=O)Cc2ccccc2)cc1 | -4.75 |
| Cc1oc2ncnc(N3CCOCC3)c2c1C(=O)O | -5.76 |
| FC(F)(F)c1cc(-c2ccco2)nc(N2CCOCC2)n1 | 6.89 |
| Cc1ccc(-n2cc(-c3ccccc3)c3c(NCCCO)ncnc32)cc1 | -0.247 |
| CCN(CC)C(=O)C1CCCN(Cc2ccc(OC)c(O)c2)C1 (centres unmarked) | -4.35 |
| Cn1nc(C(=O)NCc2cccnc2)c2ccccc2c1=O | 3.93 |
| N#C/C(=C\c1ccc(Br)cc1)c1nc(-c2ccc(F)cc2)cs1 | -2.28 |
| Cc1ccc(C(=O)c2oc3ccccc3c2NC(=O)CC(C)C)cc1 | 7.02 |

| SMILES | % Inhibition @ 10 uM [%] |
| --- | --- |
| Cc1ccccc1NC(=O)C1CCC(=O)N1 (centres unmarked) | 0.132 |
| C=CCn1c(SCC(=O)Nc2cccc(OC)c2)nc2scc(-c3ccc(C)o3)c2c1=O | 0.851 |
| Cc1ccc(CCNC(=O)CSc2nnc(C)c3c(C)n(-c4ccccc4)nc23)cc1 | -7.67 |
| Cc1ccccc1-c1nc(CS(=O)(=O)CC(=O)NC2CCCC2)c(C)o1 | -0.138 |
| Cc1ccc(C(=O)c2cn(Cc3ccccc3F)c3nc(C)ccc3c2=O)cc1 | -2.5 |
| CCC(NC(=O)C1CCN(c2ccc(C(C)=O)cc2)CC1)C(=O)c1nc2ccccc2o1 (centres unmarked) | -6.56 |
| COc1ccccc1N(Cc1cc2ccc(C)cc2nc1O)C(=O)c1cccnc1 | -0.173 |
| O=c1/c(=C/c2ccc(OCc3ccccc3)cc2)sc2nc(-c3cccnc3)nn12 | 1.96 |
| CCOc1ccc(/C=C2/N=C(c3cncc(Br)c3)OC2=O)cc1 | 3.1 |
| COc1ccc(C(=O)NC2CC(C)(C)NC(C)(C)C2)cc1OC | 13.6 |
| O=C(C1CCCN(S(=O)(=O)c2cccc3nonc23)C1)N1CCC(Cc2ccccc2)CC1 (centres unmarked) | -0.0508 |
| CCOc1cc(C2CC(=O)Nc3c2c(=O)nc(SCc2ccccc2Cl)n3C)ccc1O (centres unmarked) | 2.25 |
| CCN1C(=O)C(=CNc2ccc3[nH]ncc3c2)C(=O)N(CC)C1=O | 0.751 |
| CCc1ccc2nc(N(CCN(C)C)C(=O)CCS(=O)(=O)c3ccccc3)sc2c1 | -0.613 |
| CCOC(=O)c1cnc2ccc(C(=O)OC)cc2c1NCc1cccnc1 | -2.14 |
| Cc1ccc(NC(=O)CCS(=O)(=O)c2ccc(Br)cc2)nc1 | 1.2 |
| CC1=C(C#N)C(c2cccnc2)C2=C(O)CCCC2=N1 (centres unmarked) | -4.8 |
| CCOC(=O)C1=C(C)N(C)C(=S)NC1c1ccccc1 (centres unmarked) | -6.89 |
| CCOc1cc(C(=O)Nc2noc3ccccc23)cc(OCC)c1OCC | 37.8 |
| OC1(c2ccc(Br)cc2)CCN(CC2CC3C=CC2C3)CC1 (centres unmarked) | 3.48 |
